“And” between values parts separate entries of the source, which are not always exact repeats. Equal entries are not always repeated. The list shows a part of the results. The main result of the screen is listed elsewhere. These columns were measured beside it and carry no call. Numbered stars: 1 amine (or outer) side, 2 acyl side, 3 side chain; on linkers, the order of the positions; unused ones are H or OH. Square brackets hold non-standard residues; d marks the D form. Peptide text beside a SMILES is read from it. X10 = O=C(C(CC(O)CO)O[*:1])[*:2]; NMeV = CN[CH](C(=O)O)C(C)C; NMeA = CN[CH](C)C(=O)O; βAla = NCCC(=O)O

For 28 compounds, activity change, negative = inhibition results are on record in PubChem BioAssay AID1745853 (National Center for Advancing Translational Sciences (NCATS), 2022).

Common to all, as to assay: Primary Screen for Target Class Profiling of Small Molecule Inhibitors of Methyltransferases
Test [1] addresses Glycine N-methyltransferase (Homo sapiens) (UniProt Q14749). To be noted: purified enzyme, MTase-Glo SAH luminescence; measured here: GNMT inhibition; at 40 µM; stronger effect = lower value. In outline:
(§1)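 Each enzyme was reacted with SAM and its substrate, with compounds tested once at 40 uM; SAH formed was read by MTase-Glo luminescence.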

Test [2] addresses Guanidinoacetate N-methyltransferase (Homo sapiens) (UniProt Q14353). To be noted: purified enzyme, MTase-Glo SAH luminescence; measured here: GAMT inhibition; at 40 µM; stronger effect = lower value. The method in brief: as §1
For test [3], the target named is Histamine N-methyltransferase (Homo sapiens) (UniProt P50135). To be noted: purified enzyme, MTase-Glo SAH luminescence; measured here: HNMT inhibition; at 40 µM; stronger effect = lower value. In outline:
as §1

Test [4] addresses Nicotinamide N-methyltransferase (Homo sapiens) (UniProt P40261). To be noted: purified enzyme, MTase-Glo SAH luminescence; measured here: NNMT inhibition; at 40 µM; stronger effect = lower value. In outline: as §1
For test [5], the target named is Phenylethanolamine N-methyltransferase (Homo sapiens) (UniProt P11086). Conditions: purified enzyme, MTase-Glo SAH luminescence; measured here: PNMT inhibition; at 40 µM; stronger effect = lower value. In outline: as §1
On the % scale 0 is the no-effect control and ±100 the full control effect.

Consider `Cc1cccc(N2CCN(S(=O)(=O)c3ccc4[nH]c5c(c4c3)CCCC5)CC2)c1C`, for which the activity change, negative = inhibition in test [1] was 1.07%; in test [2], 4.36%; in test [3], -3.8%; in test [4] it was 2.65%; in test [5], 2.14%.
As for `COC(=O)[C@@]1(O)C=CC[C@@H]2[C@@]3(C)C[C@@H](c4ccoc4)OC(=O)[C@H]3CC[C@]21C`, the activity change, negative = inhibition is 2.69% in test [1]; -0.779% in test [2]; 8.91% in test [3]; -13% in test [4]; 6.99% in test [5].
Take `CNC(C)C(=O)NC(C(=O)N1CCCC1C(=O)Nc1snnc1-c1ccccc1)C1CCCCC1` (stereo not given): the activity change, negative = inhibition in test [1] was 6.24%; in test [2] it was 3.75%; in test [3], 11.4%; in test [4], -11.9%; in test [5], 4.41%.
For `CCC(C)C1NC(=O)C2CCCN2C(=O)C(CC(O)CO)OC(=O)CCNC(=O)C(C)N(C)C(=O)C(C(C)C)N(C)C1=O` (stereo not given) (cyclo([X10]PI[NMeV][NMeA][βAla]); configuration not given here), the activity change, negative = inhibition in test [1] was -0.182%; in test [2], -1.41%; in test [3], 1.59%; in test [4] it was -13.2%; in test [5], 3.48%.
For the compound `CC(C)c1nc(CNC(=O)c2ccc(NC3CCCCC3)nc2)no1`, the activity change, negative = inhibition in test [1] was -1.92%; in test [2], -0.492%; in test [3], -0.9%; in test [4], -2.09%; in test [5] it was -1.49%.
Turning to `Cc1ccc(C(=O)C(C)n2nc3n(CC(C)C)c(=O)c4ccc(C(=O)NCC(C)C)cc4n3c2=O)cc1C` (stereo not given), the activity change, negative = inhibition is 7.32% in test [1]; 1.22% in test [2]; 11.1% in test [3]; -0.304% in test [4]; 6.6% in test [5].
In the same order, the values of `CCc1c(C)nn(CC(=O)N2CC(C)(C)[C@@](C)(O)C2)c1C` are -5.09%, -5.25%, -2.06%, -7.08% and -4.63%.
`COCCCNC(=O)CCc1nnc2n(Cc3ccccc3Cl)c(=O)c3ccccc3n12`: the activity change, negative = inhibition in test [1] amounted to 3.66%; in test [2], 2.33%; in test [3], 6.54%; in test [4] it was 12.3%; in test [5], 1.11%.
In the same order, the values of `COc1ccc(-c2nn(-c3ccccc3)cc2CN2CCC(F)CC2)c(F)c1` are -5.42%, -1.18%, -1.11%, -8.49% and -2.23%.
For `O=C(CCc1nnc2n(Cc3ccc(F)cc3)c(=O)c3ccccc3n12)NCCN1CCCC1`, the activity change, negative = inhibition in test [1] is -8.53%; in test [2] it was -28.8%; in test [3], -47.2%; in test [4] it was -2.88%; in test [5], 2.65%.
Taken in the same sequence, the figures for `CC1CCC(NC(=O)c2cc3n(n2)CC(c2ccc(Cl)cc2)OC3)CC1` (stereo not given) were -11.7%, -10.4%, -7.95%, -10.8% and -3.47%.
Turning to `COc1ccc(C)cc1NC(=O)c1ncn2c1C(=O)N(C1CC1)C(C)(C(=O)NCc1ccc(F)cc1)C2` (stereo not given), the activity change, negative = inhibition stood at 1.3% in test [1]; 2.34% in test [2]; 14.6% in test [3]; 5.21% in test [4]; 9.94% in test [5].
Consider `COc1ccc(NC(=O)N2CCn3cccc3C2Cc2ccccc2)cc1` (stereo not given), for which the activity change, negative = inhibition in test [1] was -12.9%; in test [2], 0.286%; in test [3] it was -24.5%; in test [4], -14.2%; in test [5], -17.8%.
In the same order, the values of `CC1=NN(c2ccccc2)C(=O)C1` are -7.09%, -0.771%, 5.65%, -7.46% and 4.08%.
With `COC1CCOC2(CCN(S(=O)(=O)c3cn(C)cn3)CC2)C1` (stereo not given), the activity change, negative = inhibition was 1.49% in test [1]; 0.205% in test [2]; 2.97% in test [3]; -0.303% in test [4]; 0.761% in test [5].
As to `CN(C)c1ccc(C2O[C@@H](c3ccccc3)C[C@H](c3ccccc3)O2)cc1` (stereo not given in full), the activity change, negative = inhibition was -3.5% in test [1]; -0.98% in test [2]; 7.82% in test [3]; -15.2% in test [4]; 0.707% in test [5].
Take `CC(C)N1C[C@@H](F)[C@@H](OCc2nc3ccc(F)cc3[nH]2)C1`: the activity change, negative = inhibition in test [1] was -9.04%; in test [2] it was -7.72%; in test [3], -5.52%; in test [4], -12%; in test [5] it was -7.13%.
Turning to `CN1C(=O)c2cc(C(=O)NCCc3ccc(Cl)cc3)nn2CC1(C)C(=O)NCc1ccccc1` (stereo not given), the activity change, negative = inhibition in test [1] is 3.52%; in test [2], 0%; in test [3], -0.813%; in test [4], 4.09%; in test [5], 0.484%.
Turning to `CC(C)Cn1c(=O)c2ccc(C(=O)NC(C)C)cc2n2c(=O)n(Cc3ccc(Cl)cc3)nc12`, the activity change, negative = inhibition is 5.07% in test [1]; 0% in test [2]; 7.72% in test [3]; 1.04% in test [4]; 5.93% in test [5].
Take `O=C(Nc1ccccc1F)C1CN(C2CCCC2)C(=O)N1` (stereo not given): the activity change, negative = inhibition is -5.49% in test [1]; -10.4% in test [2]; -3.04% in test [3]; -11.6% in test [4]; -9.1% in test [5].
As for `CCOCCCNC(=O)C1c2c(n(C)c3ccccc23)SCC(=O)N1c1ccc(F)cc1F` (stereo not given), the activity change, negative = inhibition in test [1] was 14.7%; in test [2], 1.71%; in test [3], 7.19%; in test [4], 11.4%; in test [5], 11.5%.
In the same order, the values of `NCCCNCCCCNCCCN` are 4%, 13.4%, 4.55%, -1.67% and 10.5%.
In the same order, the values of `CC(C)Cn1c(=O)c2ccc(C(=O)NC3CCCC3)cc2n2c(=O)n(CC(=O)NCc3ccccc3)nc12` are -0.104%, 1.82%, 2.33%, -1.04% and -1.87%.
Turning to `CCN(CC)CCNC(=O)c1cc(Cl)c(N)cc1OC`, the activity change, negative = inhibition in test [1] was 0.396% and 5.08%; in test [2], 7.41% and 7.49%; in test [3], 0.285% and -0.994%; in test [4] it was -9.66% and -7.76%; in test [5], 4.73% and 2.85%.
For `CC(=O)NCCNC(=O)C1CCCN(S(=O)(=O)c2ccccc2)CCC(=O)NCC1` (stereo not given), the activity change, negative = inhibition was -1.17% in test [1]; 0.963% in test [2]; 2.59% in test [3]; -8.3% in test [4]; -0.481% in test [5].
Regarding `Cc1cc(C)cc(NC(=O)Cn2nc3n(Cc4ccc(F)cc4)c(=O)c4ccccc4n3c2=O)c1`, the activity change, negative = inhibition is -3.7% in test [1]; -3.26% in test [2]; 0.269% in test [3]; -5.39% in test [4]; -4.74% in test [5].
For `c1ccc(-c2nnn3c2nc(N2CCCCC2)c2ccccc23)cc1`, the activity change, negative = inhibition in test [1] is -4.18%; in test [2], -6.26%; in test [3], -8.27%; in test [4] it was -11.3%; in test [5], -27.8%.
In the case of `CCOc1ccc2ccccc2c1C(=O)N[C@@H]1C(=O)N2[C@@H]1SC(C)(C)[C@@H]2C(=O)O`, the activity change, negative = inhibition in test [1] was 6.47%; in test [2], 3.71%; in test [3], 8.44%; in test [4], -12.5%; in test [5], 2.78%.
